From PubChem BioAssay (Tox21)
Inconclusive means that the source gave no clear call. Such entries were picked first, then a sample of the others. For part of these data: Where the call is inconclusive, the potency comes from a doubtful curve fit. The source holds several records for some structures; these can differ, active in one and inactive in another. The source made the active and inactive calls. Unless noted, calls follow the shape of the dose curve; as a rule, active = well fitted curve in the direction sought with a large enough effect in the repeat runs; inconclusive = weak or mixed curves; inactive = no such curve, though single readings can be large; an effect the other way counts as inactive or inconclusive.

Legend:
[1] = qHTS assay to identify small molecule agonists of H2AX (AID 1224845; active = well fitted activation curve with a large enough effect in the signal ratio in the repeat runs, not every such curve was filed as active; inconclusive = weak or mixed curves; the % refers to the signal ratio); details: CHO-K1 phospho-H2AX Ser139 HTRF, 3 h; series mostly up to 154 µM
How it was run: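 Wild-type CHO-K1 cells, plated overnight, exposed 3hr at 37C to 15 concentrations (0.76% DMSO final). Lysed, then HTRF anti-pH2AX (S139) cryptate and anti-H2AX-d2 antibodies, 24 hr room temperature; 665/620 nm emission read.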

[2] = qHTS assay to identify small molecule agonists of the hypoxia (HIF-1) signaling pathway (AID 1224846; active = well fitted activation curve with a large enough effect in the signal ratio in the repeat runs, not every such curve was filed as active; inconclusive = weak or mixed curves; the % refers to the signal ratio); details: HRE-bla ME-180 cells, beta-lactamase ratio, 17 h; activation: at 76.8 µM (top of the series) unless noted
How it was run: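 Steps: seed ME-180 HRE-bla cells (2,000/well, 0.5% dialyzed FBS); incubate 5 hrs at 37C; pin-transfer compounds or DMSO; incubate 17 hrs; add LiveBLAzer B/G substrate CCF4-AM; measure reporter activation by FRET.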

[3] = qHTS RealTime-Glo MT Cell Viability Assay in HepG2 cells - 40 hour (AID 1224870); also: nearly all actives have a fitted effect of over 50% in size
How it was run: (§1)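 HepG2 cells (600/well) mixed with RealTime-Glo MT reagent, settled 5 h at 37 C/5% CO2 before compound addition. Nonlytic NanoLuc luminescence from viable-cell prosubstrate reduction read repeatedly during 40 h treatment at 37 C.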

[4] = A CellTox Green Cytotoxicity Assay to monitor cytotoxicity in HEK293 cells - 40 hour (AID 1224871); also: nearly all actives have a fitted effect of over 45% in size
How it was run: (§2)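 Cytotoxicity was tracked continuously in HEK293 cells by a DNA-binding dye excluded from viable cells. Compounds were transferred in DMSO 5 h after seeding; fluorescence was recorded at intervals up to 40 h.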

[5] = A CellTox Green Cytotoxicity Assay to monitor cytotoxicity in HEK293 cells - 24 hour (AID 1224875); also: nearly all actives have a fitted effect of over 45% in size
How it was run: as §2

[6] = qHTS RealTime-Glo MT Cell Viability Assay in HepG2 cells - 32 hour (AID 1224877); also: nearly all actives have a fitted effect of over 55% in size
How it was run: (§3)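 Cell number in HepG2 cultures estimated from NanoLuc luminescence generated by metabolic reduction of a prosubstrate by living cells. The homogeneous, nonlytic format allowed repeated reads at 0, 8, 16, 24, 32 and 40 h of compound exposure.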

[7] = A CellTox Green Cytotoxicity Assay to monitor cytotoxicity in HepG2 cells - 24 hour (AID 1224878); also: nearly all actives have a fitted effect of over 45% in size
How it was run: (§4)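 Real-time, homogeneous cytotoxicity readout: dead-cell DNA staining by CellTox Green in HepG2 monolayers, fluorescence measured at timed intervals up to 40 h of continuous compound exposure.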

[8] = A CellTox Green Cytotoxicity Assay to monitor cytotoxicity in HepG2 cells - 40 hour (AID 1224879); also: nearly all actives have a fitted effect of over 40% in size
How it was run: as §4

[9] = A CellTox Green Cytotoxicity Assay to monitor cytotoxicity in HEK293 cells - 32 hour (AID 1224881); also: nearly all actives have a fitted effect of over 40% in size
How it was run: as §2

[10] = qHTS RealTime-Glo MT Cell Viability Assay in HEK293 cells - 32 hour (AID 1224868); also: nearly all actives have a fitted effect of over 50% in size
How it was run: (§5)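 Homogeneous bioluminescent viability format in HEK293 cells (600 cells/well). Following 5 h at 37 C/5% CO2, 23 nL compound was pintooled; the signal was measured repeatedly during 40 h incubation.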

[11] = qHTS RealTime-Glo MT Cell Viability Assay in HEK293 cells - 16 hour (AID 1224872); also: nearly all actives have a fitted effect of over 50% in size
How it was run: as §5

[12] = qHTS RealTime-Glo MT Cell Viability Assay in HepG2 cells - 8 hour (AID 1224873); also: nearly all actives have a fitted effect of over 55% in size
How it was run: as §1

[13] = qHTS RealTime-Glo MT Cell Viability Assay in HEK293 cells - 40 hour (AID 1224874); details: RealTime-Glo luminescence; max response: stronger effect = lower value; also: nearly all actives have a fitted effect of over 50% in size
How it was run: (§6)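 Nonlytic bioluminescent viability monitoring. HEK293 at 600 cells/well with reagent; 5 h settle; compound transfer by pintool; plates held at 37 C and read at set time points.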

[14] = qHTS RealTime-Glo MT Cell Viability Assay in HEK293 cells - 0 hour (AID 1224880); also: nearly all actives have a fitted effect of over 45% in size
How it was run: as §6

[15] = qHTS assay to identify small molecule agonists of H2AX - cell viability counter screen (AID 1224847; calls by dose curve; also: nearly all actives have a fitted effect of over 30% in size)
How it was run: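 Wild-type CHO-K1 cells (10% FBS medium) were plated overnight at 37C, exposed to compounds at 15 concentrations for 3 hr at 37C (0.76% DMSO final), and viability was read as CellTiter-Glo luminescence after 30 min at room temperature.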

[16] = qHTS assay to identify small molecule antagonists of the estrogen related receptor (ERR) signaling pathway from Tox21 library (AID 1224848); also: nearly all actives have a fitted effect of over 50% in size
How it was run: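 Luminescent reporter read-out (ONE-Glo) from NTP's ERR cell line after 18 h treatment at 37 C with DMSO-dissolved Tox21 compounds; cells pre-plated 6 h beforehand at 2,000 per well.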

[17] = qHTS RealTime-Glo MT Cell Viability Assay in HepG2 cells - 24 hour (AID 1224867); also: nearly all actives have a fitted effect of over 50% in size
How it was run: as §3

Measured: Potency
Potency is read from the fitted curve at half-maximal effect; tags tell the direction and shape of the fitted curve or compound fluorescence and quenching.

Cc1ccc(Cl)c(N)c1Cl
inconclusive: [1] 127 µM [activator, single point] | [2] 54.9 µM [single point] | [3] 54.9 µM [falling, partial curve, poor fit] | [4] 61.6 µM [activator, single point] | [5] 61.6 µM [activator, single point] | [6] 54.9 µM [cytotoxic, partial curve, poor fit] | [7] 54.9 µM [activator, single point] | [8] 54.9 µM [activator, single point] | [9] 61.6 µM [activator, single point]

CCOC(=O)c1ccccc1C(=C1C=C(Br)C(=O)C(Br)=C1)c1cc(Br)c(O)c(Br)c1
inactive: [12]
inconclusive: [1] 94.9 µM | [2] 46.1 µM | [10] 36.6 µM [cytotoxic, single point] | [11] 46.1 µM [cytotoxic, partial curve, poor fit] | [13] 41.1 µM [cytotoxic, partial curve, poor fit] | [14] 32.6 µM [falling, partial curve]

CC1CN(c2ccccc2)NC1=O (stereo not given)
inconclusive: [1] 101 µM [falling, partial curve]
inactive: [2] | [9]

CNC(=S)NN
inactive: [11] | [7]
inconclusive: [2] 54.9 µM [falling, single point] | [10] 17.4 µM [cytotoxic, partial curve] | [4] 54.9 µM [activator, partial curve, poor fit] | [8] 54.9 µM [activator, single point]
active: [1] 89.8 µM

O=C(O)Cc1cc(I)c(Oc2cc(I)c(O)c(I)c2)c(I)c1
inconclusive: [1] 78.4 µM [activator] | [2] 10.7 µM [rising, partial curve] | [4] 21.4 µM [activator, single point] | [5] 15.2 µM [activator, single point] | [9] 21.4 µM [activator, single point]

Cc1cc(O)ccc1O
inconclusive: [1] 51 µM [falling, partial curve] | [2] 62.3 µM [single point] | [10] 1.24 µM [rising, full curve] | [4] 55.5 µM [activator, single point] | [11] 7.85 µM [rising, partial curve] | [13] 0.785 µM [rising, full curve] | [5] 55.5 µM [activator, single point] | [9] 55.5 µM [activator, single point]

CC(=O)Nc1cc(S(=O)(=O)O)cc2cc(S(=O)(=O)O)c(N=Nc3ccccc3)c(O)c12
inconclusive: [1] 45 µM [cytotoxic, partial curve] | [16] 27.3 µM [inhibitor, partial curve] | [3] 49 µM [falling, partial curve, poor fit]
inactive: [10]
active: [15] 50.5 µM

CCC(=O)O[C@H]1[C@H](O[C@@H]2[C@@H](C)[C@H](O[C@H]3C[C@@](C)(OC)[C@@H](O)[C@H](C)O3)[C@@H](C)C(=O)O[C@H](CC)[C@@](C)(O)[C@H](O)[C@@H](C)C(=O)[C@H](C)C[C@@]2(C)O)O[C@H](C)C[C@@H]1N(C)C
28.9 µM (active) and inactive: [4]
inconclusive: [1] 74.9 µM [activator] | [2] 36.4 µM [single point] | [10] 12.9 µM [cytotoxic, partial curve] | [13] 14.5 µM [cytotoxic, partial curve, poor fit] | [7] 32.5 µM [activator, single point] | [8] 32.5 µM [activator, partial curve, poor fit]

O=C(Nc1cccc(Cl)c1)OCC#CCCl
active: [1] 113 µM | [17] 49 µM | [11] 54.9 µM | [12] 43.6 µM | [13] 49 µM
inconclusive: [2] 49 µM [falling, partial curve] | [7] 54.9 µM [activator, single point] | [8] 54.9 µM [activator, single point] | [9] 24.5 µM [activator, full curve, poor fit]
